# Assay results as given in PubChem BioAssay AID1745853 (National Center for Advancing Translational Sciences (NCATS), 2022).
# Where “and” joins values, the source holds several entries; their conditions need not be identical. Equal entries are not always repeated. Some of the results follow. These are further read-outs of the screen, such as a control signal, another cell line or another target. No call is given for them.
# How the values were obtained:
# Assay in all cases: Primary Screen for Target Class Profiling of Small Molecule Inhibitors of Methyltransferases
# [1] = target: Glycine N-methyltransferase (Homo sapiens) (UniProt Q14749); conditions: purified enzyme, MTase-Glo SAH luminescence; measured here: GNMT inhibition; at 40 µM; stronger effect = lower value
# Method in brief: (§1)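 Each enzyme was reacted with SAM and its substrate, with compounds tested once at 40 uM; SAH formed was read by MTase-Glo luminescence.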
# [2] = target: Guanidinoacetate N-methyltransferase (Homo sapiens) (UniProt Q14353); conditions: purified enzyme, MTase-Glo SAH luminescence; measured here: GAMT inhibition; at 40 µM; stronger effect = lower value
# Method in brief: as §1
# [3] = target: Histamine N-methyltransferase (Homo sapiens) (UniProt P50135); conditions: purified enzyme, MTase-Glo SAH luminescence; measured here: HNMT inhibition; at 40 µM; stronger effect = lower value
# Method in brief: as §1
# [4] = target: Nicotinamide N-methyltransferase (Homo sapiens) (UniProt P40261); conditions: purified enzyme, MTase-Glo SAH luminescence; measured here: NNMT inhibition; at 40 µM; stronger effect = lower value
# Method in brief: as §1
# [5] = target: Phenylethanolamine N-methyltransferase (Homo sapiens) (UniProt P11086); conditions: purified enzyme, MTase-Glo SAH luminescence; measured here: PNMT inhibition; at 40 µM; stronger effect = lower value
# Method in brief: as §1
# On the % scale 0 is the no-effect control and ±100 the full control effect.
Structure (SMILES),"activity change, negative = inhibition [1]","activity change, negative = inhibition [2]","activity change, negative = inhibition [3]","activity change, negative = inhibition [4]","activity change, negative = inhibition [5]"
COCC(=O)N1CCN(C(C)=O)C[C@@H]1C(=O)N[C@H](C)C(=O)OC,-6.47%,-8.1%,-3.13%,-11.8%,-4.55%
CN1C(=O)c2cc(C(=O)NCc3ccccn3)nn2CC1(C)C(=O)NCc1ccccc1 (stereo not given),4.55%,4.15%,4.07%,0.027%,1.31%
CCCn1c(=O)c2ccc(C(=O)NC3CCCC3)cc2n2c(=O)n(CC(=O)Nc3cc(C)cc(C)c3)nc12,5.31%,0.547%,7.17%,6.5%,7.28%
COC(=O)c1ncn2c1C(=O)N(CCCc1ccccc1)C(C)(C(=O)NC1CCCCCC1)C2 (stereo not given),6.75%,1.16%,4.1%,7.69%,4.61%
CC(CNC(=O)CCn1ccc2cc(S(=O)(=O)N3CCCCC3)ccc21)c1ccccc1 (stereo not given),-2.86%,7.08%,-8.25%,1.46%,0.55%
CC(=O)N1CCCC1c1nc(C2CN(Cc3cc(F)c(F)cc3F)C2)no1 (stereo not given),-4.38%,-0.303%,-2.51%,-4.14%,-7.36%
CC1(C(=O)NC2CCCCCC2)Cn2nc(-c3ccco3)cc2C(=O)N1CCCc1ccccc1 (stereo not given),-2.85%,3.74%,-0.101%,-1.78%,-6.19%
CN1CCC(CNc2ccc3ncc(-c4cccc(OC(F)(F)F)c4)n3n2)CC1,-69.1%,-39.9%,-80.1%,-66.1%,-68.8%
COc1ccc(-c2nc(C)nc3c2CCN([S+](=O)([O-])c2cccc(OC)c2)CC3)cc1,-11.7%,-5.89%,-0.755%,-12.7%,-5.76%
Cc1ccc(S(=O)(=O)N2CCC3(CC2)SCC(=O)N3Cc2ccco2)cc1,-13.3%,-5.31%,-5.55%,-7.33%,-3.65%
COc1ccc(NC(=O)Cn2nc3n(CCC(C)C)c(=O)c4ccccc4n3c2=O)cc1OC,-4.39%,0.553%,4.68%,-4.03%,-0.905%
COCCCN1C(=O)c2ccccc2CC1(C)C(=O)NC1CCCCCCC1 (stereo not given),-1.37%,0.35%,10.3%,6.45%,5.07%
COC(=O)COc1ccc2c(=O)c(-c3ccc4c(c3)OCCO4)coc2c1,-4.91%,-0.08%,-4.57%,-3.17%,-4.17%
C[C@@H]1O[C@@H](O[C@@H]2[C@@H](O)[C@@H](O)[C@H](O[C@@H]3[C@@H](O)[C@@H](O[C@]4(CO)O[C@H](CO)[C@@H](O)[C@@H]4OC(=O)/C=C/c4ccc(O)cc4)O[C@H](CO)[C@H]3OC(=O)/C=C/c3ccc(O)cc3)O[C@H]2C)[C@H](O)[C@H](O)[C@H]1O,0%,0.49%,-0.641%,-11.5%,2.61%
CC(C)CCn1c(=O)c2ccccc2n2c(SCC(=O)Nc3ccc(C(C)C)cc3)nnc12,2.62%,0.393%,10.7%,-8.24%,5.14%
O=C(c1ccoc1)N1CC[C@@H](c2ccc3ccccc3c2)[C@H](O)C1,-5%,-2.06%,0.314%,-10.3%,-4.32%
Cn1c(=O)n(C)c2cc(NS(=O)(=O)c3ccc(N4CCCC4=O)cc3)ccc21,-1.97%,-4.29%,-13.1%,-6.97%,-17.6%
C[C@H](NC(=O)CCc1nc2ccccc2c(=O)[nH]1)c1ccccc1,-2.34% and 1.69%,-4.36% and -7.12%,0.186% and 10.3%,-17.6% and 9.31% and -18.1%,-4.69% and 16.3% and -3.3%
CC1(C(=O)NC2CCCCC2)Cn2nc(-c3ccco3)cc2C(=O)N1CCc1ccc(Cl)cc1 (stereo not given),-0.215%,3.41%,2.72%,-4.98%,2.15%
CC[C@H]1OC(=O)[C@H](C)[C@@H](OC2C[C@@](C)(OC)[C@@H](O)[C@H](C)O2)[C@H](C)[C@@H](OC2O[C@H](C)C[C@H](NC)[C@H]2O)[C@](C)(O)C[C@@H](C)CN(C)[C@H](C)[C@@H](O)[C@]1(C)O (stereo not given in full),-2.34%,-3.3%,0.608%,-13.8%,-5.13%
CC(=O)Oc1c(-c2ccc(NC(=O)c3ccco3)cc2)c(-c2cccc(F)c2)nn1-c1ccc(C)cc1,-7.31%,-2.33%,-0.365%,-6.42%,-2.47%
CCCS(=O)(=O)N1CCC(N2C(=O)[C@H](OCCOC)[C@@H]2c2ccncc2)CC1,-2.14%,-3.29%,-1.98%,-5.25%,2.1%
CC1C(OC(=O)c2ccccc2)C(O)C2C(C(=O)O)=COC(OC3OC(CO)C(O)C(O)C3O)C12 (stereo not given),5.44%,2.96%,9.7%,-7.51%,-2.55%
O=C(O)CC1CCC(c2ccc(NC(=O)c3nnc(Nc4ccc(F)c(F)c4)o3)cc2)CC1 (stereo not given),-13.4%,6.23%,9.6%,-13.6%,2.21%
Cc1cccc(OCCc2noc(C3CCN(C(=O)NC4CCCCC4)C3)n2)c1 (stereo not given),-2.27%,0.619%,-0.648%,-8.44%,4.46%
C=CC1C(O[C@@H]2O[C@H](CO)[C@@H](O)[C@H](O)[C@H]2O)OC=C(C(=O)OC)C1Cc1nccc2c1[nH]c1ccccc12 (stereo not given in full),1.68%,2.69%,11.8%,-8.27%,6.08%
